# Measured values taken from the RNAGym collection of RNA variant scans (doi:10.1101/gad.245936.114).
# This sample is rich in variants without activity.
# B1: tRNA (parent)
# chain: CUCUCGGUAGCCAAGUUGGUUUAAGGCGCAAGACUUUAAUUUAUCACUACGAAAUCUUGAGAUCGGGCGUUCGACUCGCCCCCGGGAGAUUUUUUCCUCGAGCAA
# Variants of: B1
# Experiment: nonsense suppression (GFP-seq) (ratio to wild type); higher = more function; SUP4oc tRNA, yeast GFP reporter sort-seq
# Summary of the method: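 Nonsense suppression (GFPSEQ) is the median GFP/RFP ratio of each sorting bin, weighted by the variant's estimated share of cells in that bin and expressed relative to the unmutated parent tRNA. Yeast strains carried genome-integrated variants of an ochre-suppressor tRNA from a library with ~3% random mutations, plus a galactose-driven GFP ochre reporter and RFP, and were grown in raffinose/galactose medium containing 80 mg/L adenine. Cells were sorted into GFP/RFP bins, each bin was Illumina-sequenced (phred ≥30), and variants were kept only with ≥100 reads and ≥30 cells.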
row,Variant,nonsense suppression
1,G28C C29A C82A,≤ 0.026
2,C27U C64A C75U,≤ 0.026
3,C27G U58G,≤ 0.026
4,G26U A54U,≤ 0.026
5,G28U C77A,≤ 0.026
6,C27G G73A,≤ 0.026
7,G26C G78U C79A G88U,≤ 0.026
8,G26C C29G,0.0685
9,C27U G32A G73U,≤ 0.026
10,C27A G28C C29A,≤ 0.026
11,G26U G28A,≤ 0.026
12,C27A C64G,≤ 0.026
13,G26U U55C,≤ 0.026
14,C27U G85A,0.207
15,G28A C29U G69A,≤ 0.026
16,C27U G28A C64U,≤ 0.026
17,C27G G28C C29A,≤ 0.026
18,C27G G65C U76C,≤ 0.026
19,G26U C29U,≤ 0.026
20,G26U C29A,≤ 0.026
21,G28C C77G G85A,≤ 0.026
22,G26U U57C G85A,≤ 0.026
23,C27G A87G G88C,≤ 0.026
24,G28A U71A,≤ 0.026

row,Variant,nonsense suppression
1,G26U G69C,≤ 0.026
2,G28A C79G,≤ 0.026
3,C27G C56G,≤ 0.026
4,C27U C64A,≤ 0.026
5,C27G G86U,≤ 0.026
6,G28U C34A C77G,≤ 0.026
7,C27A C34A C56G A62C A89C,≤ 0.026
8,G28C U35A U57G,≤ 0.026
9,G26C C68U,≤ 0.026
10,G26U C34U,≤ 0.026
11,G26C G69A U76A C82A,≤ 0.026
12,G28A G67A C72A,≤ 0.026
13,C27U U57C,≤ 0.026
14,G26U C29G C68G,≤ 0.026
15,G26U G88A,≤ 0.026
16,G26U G88U,≤ 0.026
17,G28U G61C,0.321
18,C27G A87G,0.0273
19,C27G A87U,≤ 0.026
20,C27G C34U A60U G69A,≤ 0.026
21,G26U C72U C79G G86A,≤ 0.026
22,C27G A30U G86C,≤ 0.026
23,C27A U35C G61A,≤ 0.026
24,C27A G86C,≤ 0.026

row,Variant,nonsense suppression
1,G28A A30U U63G,≤ 0.026
2,C27A G28A U63A,≤ 0.026
3,C27G G65C C79G,≤ 0.026
4,C27G U63A,≤ 0.026
5,C27G C34G C68A,≤ 0.026
6,C27G G69A,≤ 0.026
7,C27G G69U,≤ 0.026
8,G28U A33C,≤ 0.026
9,C27G A54U G86A,≤ 0.026
10,C27U C72U C79G,≤ 0.026
11,G26C G28C C29G C72G C81G,≤ 0.026
12,G28C A31C G65A,≤ 0.026
13,G28A A54C G88U,≤ 0.026
14,C27G U57C G59U G86U,≤ 0.026
15,C27G U63A C75U,≤ 0.026
16,C27U A54U A60C G66A,≤ 0.026
17,G28A C34U G69C U76C G84C,≤ 0.026
18,C27U A31C G61C,≤ 0.026
19,C27G U63A C80A,≤ 0.026
20,C27G C29U U55A,≤ 0.026
21,G28A U63A C68G U70A G85C,≤ 0.026
22,G28C G88A,≤ 0.026
23,C27U A30U G59C C64A,≤ 0.026
24,G28C G73U U76A,≤ 0.026

row,Variant,nonsense suppression
1,G28A A54C,0.878
2,G26U C27G A30G U57G C64U G65C,≤ 0.026
3,C27A U71A G78U,≤ 0.026
4,C27G U35G A62C,≤ 0.026
5,C27G A30U,≤ 0.026
6,G28U G59A,≤ 0.026
7,G28A C83G A89C,≤ 0.026
8,C27U G73A,≤ 0.026
9,G28C A33U C79U,≤ 0.026
10,C27U U58C C82U,≤ 0.026
11,G28U C82A,≤ 0.026
12,G28U C82G,≤ 0.026
13,G28U C82U,≤ 0.026
14,C27A A62U,≤ 0.026
15,G26U C64G,≤ 0.026
16,C27U C56G,≤ 0.026
17,C27U C56U,≤ 0.026
18,G26C U55C,0.0525
19,C27U A62U C64U,≤ 0.026
20,C27G A89C,≤ 0.026
21,G26C A33G C77G,≤ 0.026
22,C27G U55C G59C G67A G78C C81A G88C,≤ 0.026
23,C27G G28U A33G U57G,≤ 0.026
24,G26C U55C G78U,≤ 0.026

row,Variant,nonsense suppression
1,G26C G86C,≤ 0.026
2,C27A A54U A74C,≤ 0.026
3,G28A C81U,1.2
4,G26U A60G G65A,≤ 0.026
5,G26C G66C,≤ 0.026
6,G26U C34U G84C G88C,≤ 0.026
7,G28C G59U C79A C83G,≤ 0.026
8,G28U A62C G69C,≤ 0.026
9,G26C C27G C34G A74C C79A G86U,≤ 0.026
10,G26U C75G C81U C83G,≤ 0.026
11,C27G A74G,≤ 0.026
12,G28A A30U C34U,≤ 0.026
13,C27G U55A G66C U70C,≤ 0.026
14,G26C U57A G73A,≤ 0.026
15,G28A G67C,≤ 0.026
16,C27U G67C G85U,≤ 0.026
17,G26U A60C G67U G85U,≤ 0.026
18,C27A C68A,≤ 0.026
19,C27A G85A,≤ 0.026
20,G28C G32A G61A G65C,≤ 0.026
21,G28A C29U A60C U70A,≤ 0.026
22,C27G U76C,≤ 0.026
23,G28A C56U G59C G78C,≤ 0.026
24,C27U A31U G32U C34U A87G,≤ 0.026

row,Variant,nonsense suppression
1,G28A G69C A87G,≤ 0.026
2,G28C U76C,0.799
3,C27G G88U,≤ 0.026
4,C27U A60C G73A C82A,≤ 0.026
5,C27U U58G,≤ 0.026
6,G26U A33U A89G,≤ 0.026
7,C27A C75A C83U,≤ 0.026
8,G26C U55C G61C G65A G84A,≤ 0.026
9,C27U C34U G69C,≤ 0.026
10,G26C G69C,≤ 0.026
11,G26U A30G C56G U57C G86A,≤ 0.026
12,C27A G78U,0.0309
13,C27U G84A,≤ 0.026
14,G26U A60G,≤ 0.026
15,C27U C79A,≤ 0.026
16,G28A C56A A60U C75U,≤ 0.026
17,C27G A33G A60C G65U,≤ 0.026
18,G28C C64U,0.0765
19,G26U C56A U57G A60U,≤ 0.026
20,C27U G65A C77U,≤ 0.026
21,G26U G66U,≤ 0.026
22,G26U G67C U70G C72A,≤ 0.026
23,G28U C29A C34U C77G,≤ 0.026
24,C27U A54U,0.104

row,Variant,nonsense suppression
1,C27U C80A,≤ 0.026
2,C27U A54G C80A,≤ 0.026
3,C27U G28C A54G G67U,≤ 0.026
4,C27A G65C U71A,≤ 0.026
5,C27U A33C U71G,≤ 0.026
6,C27G A30G A62C,≤ 0.026
7,G28C A54U U76A,≤ 0.026
8,G28A U35G G67A G84C,≤ 0.026
9,C27G U57C G59C C64A,≤ 0.026
10,G26U G73C,≤ 0.026
11,C27G C34U,≤ 0.026
12,C27U G69A,≤ 0.026
13,G26C U63A C68U G73A,≤ 0.026
14,C27U,0.183
15,C27G,≤ 0.026
16,C27A,≤ 0.026
17,C27U A31C C72A,≤ 0.026
18,C27U G59U C81U,≤ 0.026
19,G28A C29U,1.15
20,C27U U63G,≤ 0.026
21,G28C A89G,0.0403
22,G26U G69U C79U,≤ 0.026
23,C27G C34U G65U G69U,≤ 0.026
